In the supplement of paper PMC3334620:
The full ranking holds about 33,000 sequences; the median of “E-score (-0.5 to 0.5)” is about -0.011, and the highest 2% start at about 0.28. The list shows a part of the results.

molecular target: T1, Gcr1 (UniProt P07261); assay: PBM E-score (8-mer binding enrichment) (E-score (-0.5 to 0.5)); higher = stronger / more preferred TF binding; most listed sequences are background and not binding sites; conditions: protein concentration: 100 nM; construct: GST-full length
T1 sequence: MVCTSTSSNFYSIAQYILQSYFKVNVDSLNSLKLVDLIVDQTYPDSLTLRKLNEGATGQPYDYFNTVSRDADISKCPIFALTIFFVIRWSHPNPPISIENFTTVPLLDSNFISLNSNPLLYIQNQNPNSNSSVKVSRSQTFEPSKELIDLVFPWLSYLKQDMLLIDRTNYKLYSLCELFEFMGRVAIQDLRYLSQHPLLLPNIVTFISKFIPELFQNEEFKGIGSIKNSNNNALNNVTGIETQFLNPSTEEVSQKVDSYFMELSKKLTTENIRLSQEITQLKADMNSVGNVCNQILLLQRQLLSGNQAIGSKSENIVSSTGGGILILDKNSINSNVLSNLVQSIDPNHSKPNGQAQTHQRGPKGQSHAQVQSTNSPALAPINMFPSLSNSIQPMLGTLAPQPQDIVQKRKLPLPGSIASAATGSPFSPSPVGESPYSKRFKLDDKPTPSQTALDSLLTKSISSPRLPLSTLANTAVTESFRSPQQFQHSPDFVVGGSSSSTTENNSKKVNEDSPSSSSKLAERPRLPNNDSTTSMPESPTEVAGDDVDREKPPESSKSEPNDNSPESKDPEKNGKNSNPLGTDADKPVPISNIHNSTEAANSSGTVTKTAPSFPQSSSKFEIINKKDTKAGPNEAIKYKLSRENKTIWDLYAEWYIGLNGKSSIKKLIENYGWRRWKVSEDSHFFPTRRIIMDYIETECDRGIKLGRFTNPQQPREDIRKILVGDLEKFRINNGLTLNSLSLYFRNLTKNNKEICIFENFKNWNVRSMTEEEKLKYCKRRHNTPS
Description: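 Universal 'all 10-mer' protein binding microarrays (Agilent AMADID 015681) probed with GST-tagged S. cerevisiae TFs (full-length or DBD) made by in vitro transcription/translation (PURExpress), about 100-200 nM. Bound TF was detected with fluorescent anti-GST. Each ungapped 8-mer (which stands for itself and its reverse complement) is scored by the PBM enrichment score (E-score), a modified Wilcoxon-Mann-Whitney statistic from -0.5 to +0.5, computed with the Universal PBM Analysis Suite. Scale: above 0.35 generally sequence-specific binding.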

Sequence	PBM E-score
ACATATAG	0.146
CTCCACCC	-0.106
GATTGCAC	-0.18
CGAATTGA	-0.0169
AAACGACA	-0.0532
CCTCTGCG	-0.142
AGTATTGA	-0.208
ACGTAAAG	-0.00591
AGATCTGA	-0.0898
TCTGTACA	-0.00473
CCTAGTCC	-0.317
CGCGTGTA	0.0631
ACGCGTCG	-0.147
CGATTTTC	0.108
CATTCTCC	-0.166
AGCTACGA	-0.0486
TCCATCCA	-0.0825
TCCTTCAA	-0.00823
ACGATGTG	0.106
GTCGCTCA	-0.0256
AAGGCGGG	-0.0567
CTCAGCCC	-0.266
GAACACTC	0.082
CTTTCGCC	-0.364
ACAACGCT	-0.0159

Sequence	PBM E-score
AGTAGGTA	-0.0102
GCTGCCGA	0.277
CCGCCTAA	0.0346
GTACTCTA	-0.154
TCCTTCGA	-0.0266
ATAAGGTA	-0.145
GAAAGTTC	-0.0399
GATCGAAA	-0.0376
GAAGATTC	0.219
AAGAGTTC	-0.272
AATATCAA	0.024
AGCTTGGA	-0.105
ACAGGTCC	-0.126
TAACACAA	0.103
AGACAAGA	0.0392
CGGTAGAC	-0.0698
AACGTCCT	0.043
AATTGCGA	0.0612
CCGGCCAG	-0.113
ATTTACAC	0.132
CCCCATTA	-0.0791
GAATGTAC	-0.00553
AAGAACGC	0.00618
CTCGAGCC	0.0479
ATTGGTTG	0.0639

Sequence	PBM E-score
ATAAAAAT	0.125
CTGTAATA	0.193
CCCGGGGA	0.117
GATAGAAC	-0.0492
ATTGCTGA	-0.0468
AGATCTTC	-0.0749
ATCCGGAC	-0.106
AACGTTAA	-0.0454
ATTAGGAA	0.123
AGCGGACT	0.0631
GATTTCCC	-0.177
CGGCTAAC	-0.0949
CAATGTAC	0.127
GGATCAAC	-0.00409
GATGACTA	-0.0312
ATACTAGC	-0.139
GTCGGTGA	-0.195
GATCCCTA	0.145
CACGAAAA	0.00245
ACCTTGTA	0.0466
ATAATATG	0.135
CCCCTGTC	-0.212
CCGTTTTC	0.0901
AACTCCCA	-0.0821
ACACCTTG	0.0177

Sequence	PBM E-score
AGGCCTAA	-0.0235
GACGCACC	0.22
GGATCGAA	-0.0746
CAACCGTA	-0.193
AAATAGCG	0.147
CGCTATCA	-0.0385
AATCCTCA	-0.0389
AAGCTGCC	0.347
CAAAACTA	0.0814
AACCTCTT	0.16
AACGCTAC	-0.116
GCAAATCA	0.0593
ATATCGTC	0.0622
AAGCTCAT	-0.178
GCTCTCAC	-0.288
CCTCACCC	-0.133
AGGATCCA	0.263
ACGCTGCA	0.0243
CCGAGAAC	-0.0067
AGGTCCGG	-0.188
ACAGAACG	-0.0275
CGCCTGCC	-0.106
GCTACCGA	0.0446
CTCCGCTA	-0.0677
AAGTCCGC	-0.0609

Sequence	PBM E-score
CACTGCGG	0.112
CAGAGGCC	-0.0492
TCTCCACA	0.137
AACAATGC	-0.18
ACGAGATA	0.0475
GAAAATCC	0.0586
AAGGACCC	0.104
AAGACCCT	-0.027
GCGCACGA	0.101
GGATATCA	-0.071
GTATGGAC	-0.0746
CCTTAGAG	-0.135
CCGTCGTA	0.00133
CACTTGGC	-0.0971
CCGTAATC	-0.133
AACTCCCC	-0.134
TCTACTCA	-0.0572
CCTATTCA	0.114
ACTCGCAG	-0.0415
TTATAAAA	0.178
GAACTGTC	-0.0473
GAGAGGAC	-0.134
CCTCAGCA	0.0328
CGAACTCG	-0.127
AGGCGATG	0.14

Sequence	PBM E-score
AATTCCCC	0.0615
CACCCGTG	-0.158
CGTGGTTC	0.0376
GTCTATTA	0.0633
CTTTAGAC	0.0624
GGAATGAA	-0.0393
AAGTACAT	-0.0562
TCAGTAGA	-0.0326
AAGTTCGC	-0.0544
ACTGCCCC	-0.166
CTAGGAAG	0.0602
TCCTGTCA	0.221
GCTCAATA	-0.135
CCAGATAC	0.294
ATAAATAG	0.0525
CTGCAGAC	-0.185
GCATTATA	-0.068
AGGCCTAG	-0.214
AGTTCAAA	-0.0376
AACCCTAT	0.0659
CAGAATAA	0.174
CGTCTAAA	0.233
CCGGCATA	0.0787
CTGAGTAC	0.144
GCTCGGCA	0.0791

Sequence	PBM E-score
GGTGCGAC	-0.118
CAATCTAC	-0.0542
CACTATAG	-0.0625
GAGAAGGA	-0.19
CGGTCATC	-0.156
AGCCACTA	0.235
AAAATGGG	0.29
CACATTAC	0.117
AGCTCGGC	-0.00903
AGCTACTC	0.0304
GCTACATA	0.0508
CCACGACC	-0.0288
GAATCTCA	0.0763
CTCAGATC	-0.143
GAAGGTAA	0.0222
GGATTTAC	-0.0343
CCCCACGG	0.00992
ATATCCTA	-0.156
ACGTGCGG	-0.109
CTCTTCTA	0.0995
AAGAACTG	0.0143
ACTAATGC	0.0263
